Inconclusive means that the source gave no clear call. Such entries were picked first, then a sample of the others. Entries that show only a call come without a potency. A potency beside an inconclusive call is a rough fit, not a confirmed value. Some structures have more than one record in an assay (separate samples or runs), and their calls can disagree. Active and inactive are the calls of the source. Unless noted, calls follow the shape of the full dose curve.
Each compound was assayed against Progesterone receptor (Homo sapiens) (UniProt P06401) (assay: qHTS assay to identify small molecule agonists of the progesterone receptor (PR) signaling pathway (AID 1346784; also: nearly all actives have a fitted effect of over 30% in size)). Settings: PR-UAS-bla HEK293T, beta-lactamase FRET ratio, 16 h; activation: at 92.4 µM (top of the series) unless noted.
Chain of UniProt P06401 (P06401 whole entry, looked up): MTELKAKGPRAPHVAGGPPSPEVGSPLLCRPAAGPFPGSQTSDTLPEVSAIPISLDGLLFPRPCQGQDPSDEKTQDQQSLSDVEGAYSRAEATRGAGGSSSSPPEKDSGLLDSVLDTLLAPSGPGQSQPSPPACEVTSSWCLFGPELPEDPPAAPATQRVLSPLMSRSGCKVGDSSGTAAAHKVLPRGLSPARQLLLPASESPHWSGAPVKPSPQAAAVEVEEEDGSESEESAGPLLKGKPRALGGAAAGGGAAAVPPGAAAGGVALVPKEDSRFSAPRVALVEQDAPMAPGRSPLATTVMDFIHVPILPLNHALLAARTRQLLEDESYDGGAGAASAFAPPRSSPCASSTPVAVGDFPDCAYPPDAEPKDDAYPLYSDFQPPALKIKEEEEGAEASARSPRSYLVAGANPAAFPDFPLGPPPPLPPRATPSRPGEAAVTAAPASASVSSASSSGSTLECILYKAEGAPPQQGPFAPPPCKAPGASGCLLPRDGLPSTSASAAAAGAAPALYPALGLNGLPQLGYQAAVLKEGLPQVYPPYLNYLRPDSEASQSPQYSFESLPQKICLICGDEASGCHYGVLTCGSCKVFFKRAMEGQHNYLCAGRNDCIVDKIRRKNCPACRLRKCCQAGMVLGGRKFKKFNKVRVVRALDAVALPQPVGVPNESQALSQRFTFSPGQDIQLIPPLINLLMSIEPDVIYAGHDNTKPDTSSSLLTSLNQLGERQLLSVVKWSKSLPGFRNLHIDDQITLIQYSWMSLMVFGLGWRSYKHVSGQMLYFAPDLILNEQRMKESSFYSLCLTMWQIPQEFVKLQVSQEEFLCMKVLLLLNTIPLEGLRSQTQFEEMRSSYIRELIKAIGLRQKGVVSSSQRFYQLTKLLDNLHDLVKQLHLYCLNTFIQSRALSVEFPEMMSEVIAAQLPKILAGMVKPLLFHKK
Outline: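 Reporter assay, GripTite PR-UAS-bla HEK 293T cells: 16 hr exposure to DMSO-dissolved compounds at 37C, 5% CO2, in steroid-depleted (2% charcoal-stripped FBS) medium; beta-lactamase measured by FRET fluorescence.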
Potency is read from the fitted curve at half-maximal effect; tags tell the direction and shape of the fitted curve or compound fluorescence and quenching.

Row | Compound | Potency | activation
1 | O=C(O)c1cc(Cl)ccc1Cl | inactive | 
2 | O=S(=O)(Cl)c1ccccc1 | inactive | 
3 | O=[N+]([O-])/N=C1\NCCN1Cc1ccc(Cl)nc1 | inconclusive: 33.5 µM | 
4 | COc1c2c(cc3c1OCO3)CCN(C)C2 | inactive | 
5 | C=CCC1(C(C)CC)C(=O)NC(=O)NC1=O (centres undefined) | inactive | 
6 | Nc1cc(Cl)ccc1Cl | inactive | 
7 | O=C(O)C(Br)(Br)Br | inactive | 
8 | CCC1(CCC(C)C)C(=O)NC(=O)NC1=O | inactive | 
9 | O=[N+]([O-])c1ccc(CCl)cc1 | inactive | 
10 | O=Cc1cccc(Oc2ccccc2)c1 | inactive | 
11 | CCCCC(CC)COC(=O)OOC(C)(C)C (centres undefined) | inconclusive: 15.4 µM [falling, single point] | 
12 | CCCCN(CCCC)C(=S)[S-].CCCCN(CCCC)C(=S)[S-].[Zn+2] |  | inconclusive: -0.426%
13 | FC(Cl)(Cl)Cl | inactive | 
14 | CN/C(=N\[N+](=O)[O-])NCc1cnc(Cl)s1 | inactive | 
15 | CCO[C@H]1O[C@@H]2OC3(C)CC[C@H]4[C@H](C)CC[C@@H]([C@H]1C)[C@@]24OO3 | inactive | 
16 | Cc1cccc(N)c1C | active: 15.9 µM | 
17 | CC1OC(C)OC(C)O1 (centres undefined) | inconclusive: 33.5 µM [rising, single point] | 
18 | CN=C=O | inactive | 

The compounds below were run against Progesterone receptor (Homo sapiens) (UniProt P06401) (assay: qHTS assay to identify small molecule antagonists of the progesterone receptor (PR) signaling pathway (AID 1346795; active = well fitted inhibition curve with a large enough effect in the signal ratio in the repeat runs, not every such curve was filed as active; inconclusive = weak or mixed curves; the % refers to the signal ratio)). Settings: PR-UAS-bla HEK293T, beta-lactamase FRET ratio, 16 h; activity change, negative = inhibition: at 92.4 µM (top of the series) unless noted.
Outline: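 Stimulus R5020 at 1 nM final; cells HEK293T PR-UAS-bla; medium with 2% charcoal-stripped FBS; compound exposure 16 hr at 37C, 5% CO2; detection by FRET beta-lactamase substrate, 2 hr, room temperature.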

Row | Compound | activity change, negative = inhibition | Potency
19 | C=CCC1(C(C)CC)C(=O)NC(=O)NC1=O (centres undefined) | inconclusive: 4.03% [at 42.5 µM] | 
20 | CC(C)(C)C(=O)C(Oc1ccc(Cl)cc1)n1cncn1 (centres undefined) |  | inconclusive: 30.6 µM
21 | CCC(Cl)[N+](=O)[O-] (centres undefined) |  | inactive
22 | CCCCCCn1cc[n+](C)c1 |  | inactive
23 | Nc1cc(Cl)ccc1Cl |  | inactive
24 | C#CC(C)(C)NC(=O)c1cc(Cl)cc(Cl)c1 | inconclusive: -39.7% | 
25 | CCCCC(CC)COC(=O)OOC(C)(C)C (centres undefined) |  | inactive
26 | CCCCN(CCCC)C(=S)[S-].CCCCN(CCCC)C(=S)[S-].[Zn+2] |  | active: 12.2 µM
27 | OC(O)C(Cl)(Cl)Cl | inconclusive: 11.8% | 
28 | O=C1CCCO1 | inconclusive: 1.68% | 
29 | CCCCOCC1CO1 (centres undefined) |  | inactive
30 | SCc1ccccc1 | inconclusive: -39.6% | 
31 | Cc1ccccc1N |  | inactive
32 | CN(N=O)c1ccccc1 | inconclusive: 14.6% | 
33 | CCO[C@H]1O[C@@H]2OC3(C)CC[C@H]4[C@H](C)CC[C@@H]([C@H]1C)[C@@]24OO3 | inconclusive: -28.6% [at 42.5 µM] | 
34 | BrCc1ccc(Br)cc1 | inconclusive: 5.16% | 

From PubChem BioAssay (Tox21)
